# Several values for one entry are separate records, joined by “and”; a condition that tells them apart may be missing. Identical values can stand only once. Out of some 73,000 compounds screened, about 2,500 (3.4%) were called active. The inconclusive results got no clear call from the source; some entries with a clear call stand among them for comparison. Calls come from the whole dose curve; as a rule, active = well fitted inhibition curve with a large enough effect; inconclusive = small, poorly fitted or top-dose-only effect; inactive = no such curve, though single readings can be large or run the other way. Where the call is inconclusive, the potency comes from a doubtful curve fit.
# Target: 3-hydroxyacyl-CoA dehydrogenase type-2 (Homo sapiens) (UniProt Q99714)
# UniProt Q99714, sequence (Q99714 whole entry, looked up): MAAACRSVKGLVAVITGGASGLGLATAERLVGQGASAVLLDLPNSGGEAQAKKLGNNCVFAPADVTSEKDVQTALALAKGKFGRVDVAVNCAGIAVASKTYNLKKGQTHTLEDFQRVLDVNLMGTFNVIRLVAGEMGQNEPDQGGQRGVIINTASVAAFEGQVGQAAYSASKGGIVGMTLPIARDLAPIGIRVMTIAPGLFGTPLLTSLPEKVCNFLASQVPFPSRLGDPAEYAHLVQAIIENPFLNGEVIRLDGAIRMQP
# UniProt Q99714, sequence (Q99714 whole entry, looked up): as above
# Assay: qHTS Assay for Inhibitors of HADH2 (Hydroxyacyl-Coenzyme A Dehydrogenase, Type II); note: nearly all actives have a fitted effect of over 60% in size
# Conditions: recombinant HADH2, NADH fluorescence, beta-hydroxybutyryl-CoA; activity change, negative = inhibition: at 57.1 µM (top of the series)
# Summary of the method: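 Activity measured as NADH fluorescence gain (360/450 nm), taken as the change between first and last reads of a 4-min kinetic run. Conditions: pH 9.0 Tris buffer, 20 nM E. coli-expressed His-tagged enzyme, 1 mM NAD+, 90 uM beta-hydroxybutyryl-CoA; 15-min compound preincubation.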
# % is set by controls: 0 for no effect and ±100 for the full control effect; potency is the fitted concentration of half-maximal effect; tags give direction and shape of the fitted curve.
Compound,Potency,"activity change, negative = inhibition"
CN(C)CCCN1C(=O)c2oc3ccc(F)cc3c(=O)c2C1c1cccnc1 (stereo not drawn),"inconclusive: 25.1 µM [inhibitor, single point]",
COC(=O)Nc1c(-c2ccccc2)nc2ccc(C)cn12,active: 31.6 µM,
COC(=O)c1cc(Br)c(=O)n(-c2ccc(C(C)=O)cc2)c1,"inconclusive: 0.501 µM [inhibitor, full curve, poor fit]",
Cc1c(C(=O)O)c(O)cc2c1C(=O)c1c(O)c([C@H]3O[C@H](CO)[C@@H](O)[C@H](O)[C@H]3O)c(O)c(O)c1C2=O,"inconclusive: 0.0794 µM [inhibitor, full curve]",
O=C(c1csnn1)N1CCC[C@@]2(CCN(c3ccncc3)C2)C1,"inconclusive: 39.8 µM [inhibitor, single point]",
Cc1ccc(S(=O)(=O)NCCCN2CCOCC2)c(C)c1,,inactive: -8.42%
O=C(O)/C=C\C(=O)Nc1cccc2c1-c1ccccc1C2=O,"inconclusive: 5.01 µM [inhibitor, single point]",
CCN(CC)CCn1c(-c2ccccc2)nc2c(NC3CCCCC3)nc(C)nc21,"inconclusive: 39.8 µM [inhibitor, single point]",
O=C(O)C1CCCCC1C(=O)NCCc1ccncc1 (stereo not drawn),"inconclusive: 6.31 µM [inhibitor, single point]",
CCC(C)N(CCNC(=O)CC1Oc2ccc(C)cc2NC1=O)C1CCCCC1 (stereo not drawn),"inconclusive: 25.1 µM [inhibitor, single point]",
COc1ccc(OC)c(CCNC(=O)CC2Oc3ccc(C)cc3NC2=O)c1 (stereo not drawn),"inconclusive: 31.6 µM [inhibitor, single point]",
COC(=O)c1cc(NC(=O)C2CC2)cc(C(=O)OC)c1,"inconclusive: 3.98 µM [inhibitor, single point]",
CCOC(=O)c1ccccc1N1C(=O)CSC1=S,"inconclusive: 2.51 µM [inhibitor, partial curve]",
CCCOC(=O)c1ccc(NC(=O)C2CCCO2)cc1 (stereo not drawn),"inconclusive: 31.6 µM [inhibitor, single point]",
CCC#CCOCC(=S)Nc1ccccc1,"inconclusive: 25.1 µM [inhibitor, single point]",
CS(=O)(=O)c1nc(-c2cccs2)cc(C(F)(F)F)n1,active: 12.6 µM,
CO/N=C(\C)CCN1CCc2nc(-c3ccccc3)c(-c3ccccc3)cc2C1,,inactive: 6.74% [at 11.4 µM]
NC(=O)c1c(NC(=O)CSc2nnc(Cc3ccccc3)n2Cc2ccco2)sc2c1CCC2,"inconclusive: 31.6 µM [inhibitor, single point]",
O=S(=O)(NCCSc1nc2ccccc2o1)c1ccccc1,,inactive: -6.82%
O=C(Nc1cccs1)Nc1ccccc1Cl,"inconclusive: 39.8 µM [inhibitor, single point]",
COc1ccc2oc(-c3ccccc3)c(C(N)=O)c2c1,"inconclusive: 31.6 µM [inhibitor, single point]",
CCc1nc2ccccc2n1Cc1cc(=O)n2cc(C)ccc2n1,"inconclusive: 25.1 µM [inhibitor, single point]",
CN1CCc2c(sc3c2c(=O)n(-c2ccccc2)c2nnc(SCc4ccccc4F)n32)C1,"inconclusive: 39.8 µM [inhibitor, single point]",
CCCCn1nc(NC(=O)c2cccs2)c2cc3ccccc3nc21,"inconclusive: 20 µM [inhibitor, single point]",
O=c1c2c([nH]c3ccccc13)C(=C1CCCC1)CC2,"inconclusive: 25.1 µM [inhibitor, partial curve]",

Compound,Potency,"activity change, negative = inhibition"
Cc1cc(C)c(C#N)c(N2CCN(Cc3ccc4c(c3)OCO4)CC2)n1,"inconclusive: 6.31 µM [inhibitor, single point]",
Fc1ccccc1CSc1nnc(-c2cnccn2)n1Cc1ccco1,,inactive: -3.47%
COCC(=O)Nc1ccc(Nc2ccccc2)cc1,,inactive: -20.8%
CNC(=O)c1cc(C)c(-c2ccccc2)s1,"inconclusive: 31.6 µM [inhibitor, single point]",
CCOC(=O)CSC1=C(C#N)C(c2ccccc2)C(C(C)=O)=C(C)N1 (stereo not drawn),"inconclusive: 25.1 µM [inhibitor, single point]",
COc1ccc(CNCC(=O)Nc2cc(C)nn2-c2nc(C)cc(C)n2)cc1OC,,inactive: 0.741%
CC(C)Cn1c(CCC(=O)O)ccc1-c1cccs1,"inconclusive: 20 µM [inhibitor, partial curve]",
Fc1ccc(C2=Nn3c(Cc4ccccc4)nnc3SC2)cc1,"inconclusive: 7.94 µM [inhibitor, single point]",
N#Cc1c(N)oc(-c2ccc3c(c2)OCO3)c1-c1ccc2c(c1)OCO2,active: 20 µM,
CCN(CC)CCCN(Cc1cc2cc3c(cc2[nH]c1=O)OCCO3)C(=O)Nc1ccccc1,active: 31.6 µM,
C=CCNC(=O)CNS(=O)(=O)c1ccc(F)cc1,"inconclusive: 31.6 µM [inhibitor, single point]",
O=c1nc2s/c(=C\c3ccco3)c(=O)n2nc1Cc1ccccc1,active: 7.94 µM,
CSc1ccccc1NC(=O)C1CCCO1 (stereo not drawn),"inconclusive: 31.6 µM [inhibitor, single point]",
COc1ccc(-c2nc(CSCC(=O)N3CCC(C(N)=O)CC3)c(C)o2)cc1OC,"inconclusive: 31.6 µM [inhibitor, single point]",
CCCNC(=O)c1cc(-c2ccc(OC)cc2)on1,,inactive: 6.5%
O=C(CCn1c(=O)c2sccc2n(Cc2cc(=O)n3ccccc3n2)c1=O)NCc1ccco1,"inconclusive: 25.1 µM [inhibitor, single point]",
COc1ccccc1N1CCN(C/C=C/c2ccc(N(C)C)cc2)CC1,active: 31.6 µM,
CCN(CC)c1ccc(NC(=O)CSc2nc(C)cc(=O)[nH]2)cc1,"inconclusive: 31.6 µM [inhibitor, single point]",
C=CCn1c(N)c(C(=O)NCC2CCCO2)sc1=S (stereo not drawn),active: 25.1 µM,
CN(Cc1nc(-c2ccncc2)no1)S(=O)(=O)c1ccc(Br)cc1,,inactive: 2.38%
CC(NC(=O)c1ccccc1NS(C)(=O)=O)c1ccccc1 (stereo not drawn),"inconclusive: 31.6 µM [inhibitor, single point]",
Cc1ccc(-n2ncc3c(Nc4c(C)n(C)n(-c5ccccc5)c4=O)ncnc32)c(C)c1,,inactive: 0.971%
COC(=O)Cc1ccc2c3ccccc3n(C)c2c1,,inactive: 2.48%
Cc1ccc(CN2CC(C(=O)Nc3ccc4c(C)cc(=O)oc4c3)CC2=O)cc1 (stereo not drawn),"inconclusive: 31.6 µM [inhibitor, single point]",
O=C(O)c1cc(Cl)c2ccccc2c1O,active: 25.1 µM,

Compound,Potency,"activity change, negative = inhibition"
CCc1ccc(NC(=O)c2ccc3c(c2)C(=O)N(Cc2ccco2)C3=O)cc1,"inconclusive: 31.6 µM [inhibitor, single point]",
O=C(NCCC1=CCCCC1)C1CCN(S(=O)(=O)c2cccc3nsnc23)CC1,"inconclusive: 31.6 µM [inhibitor, single point]",
COc1ccc(C)cc1-n1nnnc1SCc1csc(C)n1,,inactive: -0.113%
CCCCNc1cc(C(=O)O)cc(S(N)(=O)=O)c1Oc1ccccc1,"inconclusive: 39.8 µM [inhibitor, single point] and inconclusive: 31.6 µM [inhibitor, single point]",
CCCCCC(=O)Nc1cccc(-c2nc3ncccc3o2)c1,"inconclusive: 39.8 µM [inhibitor, single point]",
O=C1CC(c2ccc(F)cc2)Cc2nc(N3CCc4ccccc43)ncc21 (stereo not drawn),"inconclusive: 39.8 µM [inhibitor, single point]",
CC(=O)OC[C@@H]1O[C@@H](O/N=C2/C[C@@H](O)[C@@H](O)[C@@H]3[C@@H]4C(=O)N(c5cccc(Oc6ccccc6)c5)C(=O)[C@H]4CC[C@H]23)[C@H](OC(C)=O)[C@H](OC(C)=O)[C@@H]1OC(C)=O,,inactive: 15.2% [at 11.4 µM]
COc1ccc(-c2ccc(=O)n(CC(=O)NCc3ccco3)n2)cc1,,inactive: 2.14%
Cc1ccc(C2C3=C(CC(C)(C)CC3=O)N(CCN3CCOCC3)C3=C2C(=O)CC(C)(C)C3)cc1,"inconclusive: 31.6 µM [inhibitor, single point]",
Cc1ccc(-c2csc(N(CC3CCCO3)C(=O)c3ccco3)n2)cc1 (stereo not drawn),,inactive: 0.85%
O=Nc1ccc(NO)cc1,"inconclusive: 31.6 µM [inhibitor, single point]",
CCOC(=O)c1ccc(Nc2ncnc3nc[nH]c23)cc1,"inconclusive: 31.6 µM [inhibitor, single point]",
COc1ccc2oc(=O)cc(C)c2c1,,inactive: 11%
COc1cccc(Oc2c(C)oc3c(CN4CCOCC4)c(O)ccc3c2=O)c1,,inactive: 106%
Cc1ccc(SC/C(O)=C(\C#N)c2nc3ccccc3n2C)cc1,,inactive: 0.731%
O=C(CCn1nnc2ccccc21)Nc1nnc(Cc2ccccc2)s1,"inconclusive: 31.6 µM [inhibitor, single point]",
COc1cc2ccccc2cc1C(=O)Nc1ccccc1N1CCN(S(C)(=O)=O)CC1,"inconclusive: 31.6 µM [inhibitor, single point]",
Nc1cc(-c2ccccc2)ccc1O,active: 12.6 µM,
Oc1cccc(C=NCc2ccccc2)c1O,active: 1.26 µM,
COc1ccccc1NC(=O)N1CCC(C(=O)c2ccc(F)cc2)CC1,"inconclusive: 3.98 µM [inhibitor, single point]",
O=c1c(-c2ccccc2)nc2cnc(N3CCOCC3)nc2n1-c1ccccc1,,inactive: 9.47%
O=C(CCCn1c(=S)[nH]c2ccccc2c1=O)NC1CCCC1,"inconclusive: 31.6 µM [inhibitor, single point]",
CCOc1ccc(C2C(C#N)=C(N)Oc3cc(C)n(CCN(C)C)c(=O)c32)cc1OCC (stereo not drawn),,inactive: -10.7%
